This sample is rich in variants without activity.
B1: TPR 5TU (parent)
chain: GGAUCUUCUCGAUCUAACAAAAAAGACAAAUCUGCCACAAAGCUUGAGAGCAUCUUCGGAUGCAGAGGCGGCAGCCUUCGGUGGCGCGAUAGCGCCAACGUUCUCAACUAUGACACGCAAAACGCGUGCUCCGUUGAAUGGAGUUUAUCAUG

Variants of: B1
Assay: polymerase ribozyme fitness, log enrichment relative to wild type (log ratio); higher = more active; in vitro selection for triplet polymerase activity
Summary of the method: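 Each subunit of a heterodimeric triplet polymerase ribozyme was represented by a PCR-built, transcribed mutant library that underwent triplicate single-round in vitro selection with frozen incubation at −7 °C. Extended constructs were recovered by gel excision, streptavidin-bead capture and RT-PCR, and Illumina sequencing of input and output libraries kept genotypes with ≥10 input reads and ≥1 read per output. Fitness is the logarithm of genotype enrichment relative to wild-type enrichment, from inverse-variance-weighted replicate averages, with a logarithm base of 2.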

Variant	polymerase ribozyme fitness (log ratio)
A20G A24C C51A G68A U82A A106U C123A U151G	≤ -4.2
A21G U56C C93U	-0.835
A20G A26U C38U U44A G94U	≤ -4.2
A21U A26U A28U G67A G88A A122U	≤ -4.2
A20G A22U G59A C93G A98G A137G U139G	≤ -4.2
A20U U44A A49C A150U	≤ -4.2
A20U C36U C54G G81C G92A C99U	≤ -4.2
A20U U31C A49C C57U A60G G62C C96A	-4.15
A20C C54U C95U G140U	-3.23
A21U A24U C32G C38G G126U A138G	≤ -4.2
A21G A24G C51U U104G A113U	≤ -4.2
A21C C43U C63U G86U	≤ -4.2
A21G A24U C93G	-4.02
A21G U151C	-3.8
A20G A24U A26U U148G	≤ -4.2
A20C U45A C75G C95U C99U C108U	≤ -4.2
A21U A24C U33C G94A A107C	≤ -4.2
A20G C96A	-1.84
A20G U78C G88U C105U	≤ -4.2
A20U C99U A107G U135G G140A A142G	≤ -4.2
A20U A52U U55A C85A U111G C125U G141C U146C	≤ -4.2

Variant	polymerase ribozyme fitness (log ratio)
A20G A26U A39C G86C A150C	≤ -4.2
A21C G25A C63G	-3.29
A21G C36A C57U A64G G94U G126C A138G	≤ -4.2
A20U A22C U53A G92U C96A A138G	≤ -4.2
A21C C32G G48A A122G G126U	≤ -4.2
A20U U45A C87G	-4.13
A20U G58C G59C C72U C93U	≤ -4.2
A21G G50C G71C C79A C95G A121U U127G G136U U139C A142C U145G	≤ -4.2
A21C G59A	-0.0146
A20G G34C C38A C76U U90C C114U	≤ -4.2
A21U C27U C35A C57A G59C G74C G86U A89G U101G	≤ -4.2
A20U A37U C57A C87A C95U A120U A150C	≤ -4.2
A21C C43U C57U A73C C85G A119U	≤ -4.2
A21G U45A G100A A122C	≤ -4.2
A21U A91G C93A U101C U148G	≤ -4.2
A20U G25C C57U A113C G141C	≤ -4.2
A20U A40U C69A	-2.77
A20C U33G U45G C51U G58C G70A C95U A98G G117C	≤ -4.2
A20U G71C U77G C93U	≤ -4.2
A21U C69U C87U C96A	-1.14
A21C G67C C95A A98U A115U C125U U151C	≤ -4.2

Variant	polymerase ribozyme fitness (log ratio)
A20U U56A C79A G92A C95A C96G U148A	≤ -4.2
A21U A49C C99U U139A C149U	≤ -4.2
A20C A30G G50U C95G A147G	≤ -4.2
A20C G62A G86U	-2.06
A20U U55A C87G G88A C103A A107G	≤ -4.2
A21G A28G U61C	≤ -4.2
A20C G83A A107G A120C G126U	≤ -4.2
A20C A49U A60C	-3.14
A20C G50U G81C C103U A120U	-2
A21C A66G	-3.91
A20G A89G C95U G100U	≤ -4.2
A20U A40U A49C G94A C99A G143A	≤ -4.2
A20U C36A A41G U56A G65U A119G U127C	≤ -4.2
A20G A40C A41G A49C C76G G88A C96U	≤ -4.2
A20U A30C C35U U56A C85A	≤ -4.2
A20C A52U U90G	≤ -4.2
A21C C43G G84U G100C U101G G136A A142U	≤ -4.2
A20G G59C G70A	-4.05
A20U U55A G80C G86C A115U	≤ -4.2
A21G A26C C54A G74C A110U A138U	≤ -4.2
A20U A22C C85G G86A A97G G100A G124C	≤ -4.2

Variant	polymerase ribozyme fitness (log ratio)
A20G G70C C75U C93A C95U U109C	≤ -4.2
A20U G83U U90G C99A A107U U148A	≤ -4.2
A21C A26U A60C G70C G81A G84U G92A A115U	≤ -4.2
A21G G81A C95U A107G A119C G141U	≤ -4.2
A20U C57A G71U C87A	≤ -4.2
A20G C36U A52C G59A C75A	≤ -4.2
A21U C96A A106G G128C G133U	≤ -4.2
A20G A66G G84A G141C U145A	≤ -4.2
A21G A60G G68U C93G C95G U139C	≤ -4.2
A20U A29G A91C C93A G128U	≤ -4.2
A20G C87G C131G	≤ -4.2
A21G C57G C63U G88A U151G G152U	≤ -4.2
A20U C36A C57G G68U C87A G126A G141C A142G	≤ -4.2
A21C A39G A52G C85U G88C U109G	≤ -4.2
A20C U130G U144C	-4.14
A21G C87U G140U	-3.6
A20U A26G C57U C95A G143U U148C	≤ -4.2
A20G U45A C57A U78A G80C C85G A115G	≤ -4.2
A21U A30G C57U A91U U104A G126A	≤ -4.2
A20G A28G U90A C93A C95G A106U C123U	≤ -4.2

From the RNAGym collection of RNA variant scans (doi:10.1073/pnas.2313332121)
